The text below walks through data of PMC7999658, “Characterization of P-Glycoprotein Inhibitors for Evaluating the Effect of P-Glycoprotein on the Intestinal Absorption of Drugs” (Pharmaceutics, 2021).

Where two headings read alike, the source gives them in different places.

In data set [1] the target is T1, BCRP (Homo sapiens, UniProt Q9UNQ0).
T1 sequence (Q9UNQ0 1-655): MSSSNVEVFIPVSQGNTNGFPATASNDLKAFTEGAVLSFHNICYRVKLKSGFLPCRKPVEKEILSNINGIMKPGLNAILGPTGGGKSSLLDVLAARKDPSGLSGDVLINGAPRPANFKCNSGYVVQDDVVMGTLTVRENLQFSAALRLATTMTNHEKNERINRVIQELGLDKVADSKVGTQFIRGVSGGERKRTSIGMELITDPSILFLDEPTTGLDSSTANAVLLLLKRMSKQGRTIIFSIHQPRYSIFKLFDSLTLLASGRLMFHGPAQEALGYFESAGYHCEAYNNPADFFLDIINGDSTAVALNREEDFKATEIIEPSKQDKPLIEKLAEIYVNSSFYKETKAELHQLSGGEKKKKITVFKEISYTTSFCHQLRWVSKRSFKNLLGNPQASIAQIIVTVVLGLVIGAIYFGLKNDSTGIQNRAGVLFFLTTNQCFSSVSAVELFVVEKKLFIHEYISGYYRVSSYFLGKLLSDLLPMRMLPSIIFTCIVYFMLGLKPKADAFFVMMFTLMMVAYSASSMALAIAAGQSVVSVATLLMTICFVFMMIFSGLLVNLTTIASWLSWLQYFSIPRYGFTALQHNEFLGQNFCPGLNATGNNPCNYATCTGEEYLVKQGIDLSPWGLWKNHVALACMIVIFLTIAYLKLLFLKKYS
Briefly: Inhibition of BCRP-mediated transport of mitoxantrone across Caco-2 cell monolayers. On the technique in general: Caco-2 monolayers are a common model of the intestinal barrier.

Data set [2] has as its target T2, P-gp (Homo sapiens, UniProt P08183).
T2 construct: host or cells: Caco-2
T2 sequence (P08183 whole entry): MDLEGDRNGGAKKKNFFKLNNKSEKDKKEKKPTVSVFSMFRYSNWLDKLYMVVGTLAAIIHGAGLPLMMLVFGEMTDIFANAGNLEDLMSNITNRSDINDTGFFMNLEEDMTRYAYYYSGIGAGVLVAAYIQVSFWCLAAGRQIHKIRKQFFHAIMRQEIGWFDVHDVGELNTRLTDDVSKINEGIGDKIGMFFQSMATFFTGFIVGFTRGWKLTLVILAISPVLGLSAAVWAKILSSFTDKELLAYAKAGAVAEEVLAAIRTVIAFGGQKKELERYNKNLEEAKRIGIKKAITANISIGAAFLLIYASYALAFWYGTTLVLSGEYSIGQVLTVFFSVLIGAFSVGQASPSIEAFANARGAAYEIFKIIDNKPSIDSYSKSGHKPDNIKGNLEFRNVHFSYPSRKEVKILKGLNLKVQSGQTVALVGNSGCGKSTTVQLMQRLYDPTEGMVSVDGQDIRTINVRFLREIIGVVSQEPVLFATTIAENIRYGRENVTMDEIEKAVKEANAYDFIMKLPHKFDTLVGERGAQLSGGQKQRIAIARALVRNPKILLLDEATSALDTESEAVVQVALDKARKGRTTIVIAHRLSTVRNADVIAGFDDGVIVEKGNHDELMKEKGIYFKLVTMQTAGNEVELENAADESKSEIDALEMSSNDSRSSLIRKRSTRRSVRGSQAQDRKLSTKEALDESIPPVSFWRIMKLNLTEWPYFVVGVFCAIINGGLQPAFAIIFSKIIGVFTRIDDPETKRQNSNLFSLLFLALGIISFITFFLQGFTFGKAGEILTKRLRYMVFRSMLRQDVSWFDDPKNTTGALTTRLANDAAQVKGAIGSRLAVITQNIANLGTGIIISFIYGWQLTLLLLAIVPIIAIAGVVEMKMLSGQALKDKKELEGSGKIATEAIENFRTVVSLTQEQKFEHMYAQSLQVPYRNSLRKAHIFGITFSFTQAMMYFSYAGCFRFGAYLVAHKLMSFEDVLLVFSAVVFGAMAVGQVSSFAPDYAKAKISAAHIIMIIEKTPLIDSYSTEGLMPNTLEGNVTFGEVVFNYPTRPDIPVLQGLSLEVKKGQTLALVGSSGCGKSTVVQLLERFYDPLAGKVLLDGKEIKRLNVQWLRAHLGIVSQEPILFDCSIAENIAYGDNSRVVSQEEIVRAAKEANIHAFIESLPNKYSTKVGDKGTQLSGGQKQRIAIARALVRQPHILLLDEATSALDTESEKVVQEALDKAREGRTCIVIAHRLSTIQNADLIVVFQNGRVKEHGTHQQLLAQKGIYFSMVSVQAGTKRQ
Also on record: method as in PMID 32193356. The following applies: Caco-2 monolayers; paclitaxel; 50% decrease of Papp,BA; cited from earlier work.

Data set [3] deals with T2, P-gp. Briefly: Inhibition of P-gp-mediated transport of paclitaxel across Caco-2 cell monolayers. Format: cell-based. Particulars: Caco-2 monolayers.
Data set [4] concerns the target T1, BCRP. Also on record: host or cells: Caco-2; method as in PMID 32193356. Particulars: Caco-2 monolayers; mitoxantrone; 50% decrease of Papp,BA; cited from earlier work.
Data set [5] has as its target T3, P-gp (Mus musculus, UniProt P21447).
T3 construct: the intestinal absorption of paclitaxel is restricted by P-gp expressed in the intestinal epithelium; tissue Taconic Farms; host or cells: small intestine of living male WT FVB mice (in vivo)
T3 sequence (P21447 whole entry): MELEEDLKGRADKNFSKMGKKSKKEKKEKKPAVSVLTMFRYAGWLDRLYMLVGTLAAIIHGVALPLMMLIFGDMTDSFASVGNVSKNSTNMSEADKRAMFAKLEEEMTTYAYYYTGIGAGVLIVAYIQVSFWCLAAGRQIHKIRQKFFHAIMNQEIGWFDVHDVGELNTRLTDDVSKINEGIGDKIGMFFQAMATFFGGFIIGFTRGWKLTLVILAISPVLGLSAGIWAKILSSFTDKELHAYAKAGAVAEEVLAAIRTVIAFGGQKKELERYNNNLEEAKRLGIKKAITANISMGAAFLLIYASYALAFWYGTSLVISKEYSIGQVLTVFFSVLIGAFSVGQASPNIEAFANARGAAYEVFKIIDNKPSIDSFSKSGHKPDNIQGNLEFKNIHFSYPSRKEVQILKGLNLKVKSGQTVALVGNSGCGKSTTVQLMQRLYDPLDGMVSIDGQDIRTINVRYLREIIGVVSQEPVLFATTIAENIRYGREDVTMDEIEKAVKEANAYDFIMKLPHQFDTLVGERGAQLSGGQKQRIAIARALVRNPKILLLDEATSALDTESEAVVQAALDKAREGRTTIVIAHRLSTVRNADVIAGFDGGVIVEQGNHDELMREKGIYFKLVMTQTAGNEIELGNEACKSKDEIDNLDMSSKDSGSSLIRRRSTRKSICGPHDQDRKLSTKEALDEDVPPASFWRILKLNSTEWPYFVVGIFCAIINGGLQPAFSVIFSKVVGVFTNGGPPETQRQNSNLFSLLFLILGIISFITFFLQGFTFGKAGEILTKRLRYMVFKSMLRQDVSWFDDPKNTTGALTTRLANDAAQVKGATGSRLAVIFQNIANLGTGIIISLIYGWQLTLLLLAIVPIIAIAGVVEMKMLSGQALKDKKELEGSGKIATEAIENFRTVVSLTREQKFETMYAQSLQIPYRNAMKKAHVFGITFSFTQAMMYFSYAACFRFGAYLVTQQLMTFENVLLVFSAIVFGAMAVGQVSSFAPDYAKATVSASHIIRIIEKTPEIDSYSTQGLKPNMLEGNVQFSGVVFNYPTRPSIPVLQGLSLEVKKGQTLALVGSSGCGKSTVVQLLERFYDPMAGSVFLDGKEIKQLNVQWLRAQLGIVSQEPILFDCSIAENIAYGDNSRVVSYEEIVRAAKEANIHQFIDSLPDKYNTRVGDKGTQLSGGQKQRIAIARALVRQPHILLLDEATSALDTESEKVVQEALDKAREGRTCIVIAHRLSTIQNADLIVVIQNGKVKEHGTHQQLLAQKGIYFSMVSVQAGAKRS
The data set can be described thus: Effect of WK-X-34 or LY335979 pretreatment on pharmacokinetics of oral paclitaxel in WT mice (P-S difference method). It is filed as in vivo. Particulars: WK-X-34 40 mg/kg po, paclitaxel 20 mg/kg po. As for the experimental part:
Food and water were available ad libitum.
Mean residence time (MRT), total body clearance (CLtot), and distribution volume at the steady state (Vdss) were calculated using the following equations:MRT = AUMC/AUC(8) CLtot = Dose/AUC(9) Vdss = MRT × CLtot(10)

One may read the IC50 as the concentration at which inhibition is half-maximal. For the molecule `COc1ccc(C(=O)Nc2ccccc2C(=O)Nc2ccc(CCN3CCc4cc(OC)c(OC)cc4C3)cc2)cc1OC` [WK-X-34, N-(2-(4-[2-(6,7-Dimethoxy-3,4-dihydro-1H-isochinolin-2-yl)-ethyl]phenylcarbamoyl)phenyl)-3,4-dimethoxybenzamide], the 50% inhibitory concentration (IC50) against BCRP [1] is 328 ± 96 nM; at P-gp [2] it was 501 ± 132 nM; on P-gp [3] (50% decrease of efflux ratio, read-out: IC50 on ER of paclitaxel), 214 ± 113 nM; at P-gp [3] (paclitaxel 5 μM, inhibitor concentration to achieve 50% increase of Papp,AB, read-out: IC50 on Papp,AB of paclitaxel), 935 ± 33 nM; at BCRP [4] it was 370 ± 38 nM. In addition, the “Hill coefficient, ER of mitoxantrone” value on BCRP [1] (Caco-2 monolayers) came out at 1.51 ± 0.41. The “Hill coefficient, ER of paclitaxel” value at P-gp [3] was 2.07 ± 1.22. Also, at P-gp [5], the “AUCsys of paclitaxel, pretreated WT mice versus non-treated mdr1a/1b KO mice” value is reported as “approximately three”. Further, the “FaFg of paclitaxel, pretreated WT mice relative to non-treated mdr1a/1b KO mice” value on P-gp [5] (in words) is given as “only half as high”.
